# Laboratory results reported in article PMC10668032.
# Some of the results follow. At the low end of the ranking, values are background and their order means little.
# Biological target: SIX1-Q177R homeodomain (UniProt Q15475)
# Assay: universal protein binding microarray
# Conditions: Universal all-10-mer PBM (8x60K, AMADID 030236), 300 nM GST-tagged protein, Alexa Fluor 488 anti-GST; buffer, salt, pH and temperature not stated; high values mean tight binding; most listed sequences are background and not binding sites; double strand, one strand shown
row,Sequence,binding signal [E-score]
1,GAACTCAC,-0.222
2,CACAAGTC,-0.0537
3,CCACGAAA,-0.154
4,CCTAAATA,-0.113
5,AATTGGAG,0.0907
6,AGGCCAAC,-0.115
7,CCTTAGCA,0.0503
8,TAACACCA,0.477
9,CGTATGAG,-0.227
10,GTCGGCGA,-0.0434
11,ACACGCAG,0.391
12,GGTCAGCA,0.101
13,GTAATGAA,-0.0471
14,AGCCTTCA,-0.219
15,CTGTCTGA,-0.175
16,CCCCTGCA,0.17
17,CACACGTC,0.221
18,ACGTTCCC,-0.178
19,CGCGGTTC,0.0535
20,CATGTGTA,0.259
21,GGGGCTGA,-0.146
22,TTACATAA,-0.175
23,ACCAAGTG,0.208
24,AACCTTCG,-0.117
25,GGGCGCCA,-0.0529

row,Sequence,binding signal [E-score]
1,GGAAAGAC,-0.223
2,AAAACTGC,-0.125
3,CAGATATA,-0.0556
4,ATATTTTC,0.00235
5,GGTTGGAC,-0.0405
6,CAGCGTTA,0.187
7,AATGAAAA,-0.185
8,TCGACTCA,0.115
9,AAAAACAT,-0.329
10,CTTGTACA,0.154
11,ACAGTGGA,-0.132
12,GATATTGC,-0.0693
13,ATATCGAC,0.101
14,CAGCACTA,-0.107
15,GGGAGACA,0.199
16,ATAGCTGA,-0.192
17,CTAAATAA,-0.0922
18,CGAAAAGA,0.135
19,GAGTACCA,0.0878
20,ACTTCTAG,-0.0924
21,AGTATGAG,0.0275
22,AGATTACA,0.23
23,TAAATTGA,-0.0417
24,AATGTCAA,0.0224
25,TGCGTCCA,-0.203

row,Sequence,binding signal [E-score]
1,AAAGCGAT,-0.241
2,CGACAATC,0.0765
3,AAATTTTC,-0.239
4,CTAATGAC,-0.0321
5,AAAGCGCT,-0.365
6,CGGCATTC,-0.207
7,TAACCTGA,-0.178
8,CAGCAGGG,-0.123
9,TCAATCAA,-0.294
10,AGATTAAT,-0.0266
11,CAGCCAAA,-0.256
12,ATCTGTGC,-0.169
13,ACTATCCG,0.101
14,AATTGCAG,-0.129
15,TGCGTAAA,-0.156
16,GGGTCAAA,0.171
17,ACCGAATG,0.173
18,ATTATGAA,-0.258
19,ACTAACCT,0.0431
20,ATAGCTAC,-0.0865
21,ACTTAACA,0.0969
22,ATCCATGC,-0.0906
23,CACCGACC,0.262
24,ACTTTCGA,-0.0602
25,GCACCGGA,0.162

row,Sequence,binding signal [E-score]
1,GTTAATGA,-0.0906
2,TCCGTTAA,-0.0572
3,GGAGTGGA,0.093
4,AGTCACCG,0.0642
5,AATCCTAG,-0.19
6,ATGCCCGA,-0.072
7,CTTAGAAG,0.00932
8,ATCTTTCA,0.163
9,CTGCCGGC,-0.173
10,CAGGGCCC,-0.108
11,ACTGGCAC,0.152
12,AATAAACA,0.218
13,GTTTGACA,0.193
14,AAGTCCCC,-0.276
15,CGTGCTAC,0.179
16,CGTGTAGC,0.416
17,GCGTTGCA,-0.104
18,AAGGCCGC,-0.238
19,ATCCCCCA,0.24
20,ATTTTGCA,-0.225
21,ACGGCCGC,-0.167
22,CTGGTATA,0.0285
23,ATCAAAGA,-0.0772
24,CAAGTCAA,-0.178
25,CCCGTCCC,0.105

row,Sequence,binding signal [E-score]
1,GCACCGGC,0.137
2,GGTGGCCA,0.0254
3,ACGTGGTG,0.359
4,ACCGTTTA,-0.0638
5,GAGTAATC,0.0545
6,AAGTTTGG,-0.257
7,CTCTACTC,0.108
8,TCCATAAA,-0.259
9,ATATACAC,0.409
10,CAACCGAG,-0.0615
11,AAAGCGTA,-0.142
12,ACCCGGAC,0.171
13,ACGTCCCA,-0.108
14,AGACACTA,0.343
15,CTCCAAGA,0.081
16,AGCTTTAT,-0.267
17,CCTGCCAA,-0.134
18,ACACAATA,0.123
19,AAGTTGGA,-0.00404
20,ATTCCAAG,-0.0565
21,CACAGCAG,0.0132
22,CCATGAAC,0.147
23,ATTAGTGC,-0.0942
24,CGGCGCCC,-0.0615
25,ACGTATAA,-0.0599

row,Sequence,binding signal [E-score]
1,ATGCCGTA,-0.155
2,ACTCATCG,-0.0319
3,CAATTGCC,-0.146
4,ACTCTTGG,0.139
5,AGGAGCGC,-0.204
6,AGCGGTAC,0.133
7,ACCTTCTC,0.118
8,AGGGTCTA,0.0215
9,GCATTACA,0.169
10,GCGTAAAA,-0.09
11,AATTGTGA,0.0761
12,AGTAAACT,-0.0978
13,AAGATTGA,-0.0996
14,ACTACGGC,-0.076
15,CGATTGCC,-0.0397
16,CTCATTAC,0.0347
17,TACTTCTA,-0.00954
18,AATGCAGT,-0.0926
19,GGCCGAAA,-0.152
20,CCCTGACC,0.127
21,ACGGATAT,-0.038
22,CTCTTGGA,0.126
23,AGTAGTAG,0.0228
24,TGCTCAAA,-0.056
25,ACGCTGTG,0.142

row,Sequence,binding signal [E-score]
1,AATGGTCT,-0.0633
2,ACACCGGC,0.481
3,ACAAACGT,-0.154
4,GGGTTGGA,0.0991
5,AGTTATTC,-0.0971
6,AGCATGCC,-0.308
7,ATCGGCCA,-0.183
8,TGGGACCA,0.0764
9,GCCACATA,-0.109
10,GTCCGGCA,-0.0338
11,TGGCACAA,-0.0686
12,GATGACGA,-0.244
13,ATCAGGAA,-0.24
14,ATGGTTTG,-0.0854
15,AATCGGAG,0.0218
16,ACACTTAT,0.349
17,CAAGGCTC,-0.0923
18,CCATAATA,-0.0307
19,GAGACTCA,-0.151
20,CGGCAGGC,-0.0997
21,ATGAGATG,-0.172
22,GAATTTTA,-0.00855
